Values joined by “and” are separate entries in the source; they are usually repeats but may differ in a detail not shown here. Equal values may be shown once. Screen size: about 290,000 compounds; about 2,100 (0.72%) were called active. The shares of active, inactive and inconclusive entries below differ from those in the screen. Calls come from the whole dose curve; as a rule, active = well fitted inhibition curve with a large enough effect; inconclusive = small, poorly fitted or top-dose-only effect, or effect the other way; inactive = flat fitted curve, though single readings scatter. Potencies beside an inconclusive call are fits to weak or partial responses and may not hold up.
target: Fructose-bisphosphate aldolase (Giardia intestinalis (strain ATCC 50803 / WB clone C6)) (UniProt A8B2U2); experiment: qHTS Assay for Inhibitors of Fructose-1,6-bisphosphate Aldolase from Giardia Lamblia; details: purified Giardia FBPA; activity, negative = inhibition: at 59.6 µM (top of the series) unless noted; note: nearly all actives have a fitted effect of over 55% in size
Procedure, shortened: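 40 nM FBPA preincubated 10 min at RT with compound (up to 57.5 uM final), then substrate plus GAPDH/TPI/NAD/arsenate coupling and diaphorase/resazurin added. Fluorescence read after 20 min at RT, 525/598 nm.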
% is set by controls: 0 for no effect and ±100 for the full control effect; potency is the fitted concentration of half-maximal effect; tags give direction and shape of the fitted curve.

Sequence of UniProt A8B2U2 (A8B2U2 whole entry, looked up): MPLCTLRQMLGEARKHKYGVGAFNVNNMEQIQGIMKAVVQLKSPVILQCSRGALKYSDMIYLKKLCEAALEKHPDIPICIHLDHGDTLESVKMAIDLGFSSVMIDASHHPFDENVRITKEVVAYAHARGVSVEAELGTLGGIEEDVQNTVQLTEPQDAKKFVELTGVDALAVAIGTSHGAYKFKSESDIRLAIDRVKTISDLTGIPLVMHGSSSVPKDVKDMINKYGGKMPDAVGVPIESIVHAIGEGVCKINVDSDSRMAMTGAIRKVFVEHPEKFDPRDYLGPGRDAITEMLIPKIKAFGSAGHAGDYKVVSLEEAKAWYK

SMILES | Potency | activity, negative = inhibition
CC1CN(CCCCN2C(=O)c3ccccc3C2=O)CC(C)O1 (configuration not stated) | active: 22.3 µM | –
COC(=O)CCCC1=CC2=CC(=O)C(C)(OC(=O)c3cccs3)C(=O)C2=CN1C1CCCC1 (configuration not stated) | inconclusive: 354 nM [inhibitor, full curve] and inconclusive: 446 nM [inhibitor, partial curve] | –
CC(=O)Nc1nc(-c2ccccc2)nc(-c2ccccc2OC(C)=O)n1 | – | inactive: -0.981%
CCOC(=O)c1sc2nc(CSc3ccccc3)nc(N3CCCN(C)CC3)c2c1C | active: 19.9 µM | –
O=c1[nH]c(/C=C\c2ccc(O)c(O)c2)nc(O)c1[N+](=O)[O-] | inconclusive: 20 µM [inhibitor, single point] | –
O=C(CSc1nnc(-c2cccnc2)o1)NNC(=O)c1ccc(Br)cc1 | inconclusive: 7.92 µM [inhibitor, partial curve] | –
O=C(O)c1cccnc1SCC(=O)N1CCCc2ccccc21 | inconclusive: 19.9 µM [inhibitor, single point] | –
Cn1c(=O)c2c(nc(N/N=C/c3ccc(OC(=O)c4ccco4)cc3)n2Cc2ccccc2)n(C)c1=O | inconclusive: 19.9 µM [inhibitor, partial curve] | –
N#CCCn1c(=O)c(-c2cc(F)cc(F)c2)nc2cnc(Oc3cccc(Cl)c3)nc21 | – | inactive: -2.14%
Oc1c(CN2CCc3ccccc3C2)cc(Cl)c2cccnc12 | inconclusive: 8.89 µM [inhibitor, partial curve] | –
C=CC1=C2C=C(C3CC3)N(CC3CC3)C=C2C(=O)C(C)(OC(=O)c2ccco2)C1=O (configuration not stated) | inconclusive: 0.998 µM [inhibitor, partial curve] | –
CCOC(=O)N1CCC(N2CCCC(CO)(Cc3ccccc3C)C2)CC1 (configuration not stated) | – | inactive: 2.21%
CC1CCN(CCCCOc2ccc(C(C)(C)C)cc2)CC1 | inconclusive: 15.8 µM [inhibitor, partial curve] | –
O=C(NNc1cc(N2CCOCC2)nc(N2CCOCC2)n1)c1ccc([N+](=O)[O-])cc1 | inconclusive: 2.51 µM [inhibitor, full curve] | –
Cc1cc(-c2ccccc2)nc(SCc2ccc(C(=O)O)o2)n1 | inconclusive: 17.7 µM [activator, single point] | –
CC(C)(C)c1cc(C(=O)/C=C/c2ccc(C(=O)O)cc2)cc(C(C)(C)C)c1 | inconclusive: 17.7 µM [activator, single point] | –
CC[n+]1ccc(/C=C/c2c[nH]c3ccccc23)cc1 | inconclusive: 20 µM [inhibitor, partial curve] | –
CC(C)C[C@@H](CC(=O)N[C@@H](CCC(=O)O)CC(=O)O)NC(=O)[C@@H]1CNCC[C@H]1NC(=O)C[C@@H](NC(=O)C[C@H](Cc1ccccc1)NC(=O)[C@@H]1CNCC[C@H]1N)C(C)C | inconclusive: 35.4 µM [inhibitor, single point] | –
CCOC(=O)c1cc(C)[nH]c(=S)c1C#N | inconclusive: 15.8 µM [inhibitor, partial curve] | –
O=C(CSc1ncn[nH]1)c1cccc([N+](=O)[O-])c1 | inconclusive: 25.1 µM [inhibitor, single point] | –
COc1ccc(C2C(C(=O)Nc3cc(OC)c(OC)c(OC)c3)c3ccccc3C(=O)N2C)cc1OC (configuration not stated) | – | inactive: 2.4%
COc1ccc(CNC(=O)[C@@H](NC(=O)C2CCN(C(=O)[C@@H](N)CC(C)C)CC2)C(C)C)cc1 | inconclusive: 28.2 µM [inhibitor, partial curve] | –
CN(C)c1nc(=Nc2cccc(Cl)c2)ss1 | inconclusive: 5.01 µM [inhibitor, full curve] | –

SMILES | Potency | activity, negative = inhibition
Cc1cc(Nc2cccc(Cl)c2Cl)n2ncnc2n1 | inconclusive: 3.98 µM [inhibitor, full curve] | –
CCCn1c(=O)c(C(=O)NCc2ccccn2)c(O)c2ccccc21 | inconclusive: 31.5 µM [inhibitor, single point] | –
O=C(O)COc1cc(Cl)c(Cl)cc1Cl | inconclusive: 17.7 µM [activator, single point] | –
CC1(C)CC2CC(C)(CN2Cc2c(O)ccc3ccccc23)C1 (configuration not stated) | inconclusive: 15.8 µM [inhibitor, single point] | –
Cn1c(/C(C#N)=C(\O)c2ccc(Br)s2)nc2ccccc21 | inconclusive: 17.8 µM [inhibitor, partial curve] | –
O=C(CCCN1C(=O)/C(=C/c2ccccc2)SC1=S)Nc1cccc(O)c1 | – | inactive: -6.99%
Cc1ccc(NC(=O)CN2CCc3ccccc3C2)cc1S(=O)(=O)N(C)C | inconclusive: 17.7 µM [inhibitor, partial curve] | –
COc1cc(Br)c(CNCCc2ccc3c(c2)OCO3)cc1OC | inconclusive: 28.2 µM [inhibitor, partial curve] | –
COc1ccc(-c2cc(C(=O)Oc3ccc([N+](=O)[O-])cc3)c3ccccc3n2)cc1 | – | inactive: -8.59%
COC1=C(c2ccccc2)C(=O)c2ccccc2C1=O | inconclusive: 0.561 µM [inhibitor, full curve] | –
COc1ccc(C(=O)N2CCn3c(C)ccc3C2C)cc1 (configuration not stated) | inconclusive: 15.8 µM [inhibitor, single point] | –
COc1ccc(CN(C)CC(=O)Nc2cccc(S(N)(=O)=O)c2)c(OC)c1OC | inconclusive: 19.9 µM [inhibitor, partial curve] | –
Cc1cccc(OCCCCCn2ccnc2)c1 | inconclusive: 22.3 µM [inhibitor, partial curve] | –
Cc1ccc(NC(=O)c2sc3nc(N4CCOCC4)c4c(c3c2N)CC(C)(C)OC4)cc1 | inconclusive: 39.8 µM [inhibitor, partial curve] | –
O=C(CN1CCN(c2ccc(F)cc2)CC1)NCc1cccs1 | inconclusive: 19.9 µM [inhibitor, partial curve] | –
O=C(Nc1cccc(CNCCc2c[nH]c3ccccc23)c1)c1ccccc1Cl | inconclusive: 12.6 µM [inhibitor, partial curve] | –
C/C(=N\Nc1c(F)c(F)c(Br)c(F)c1F)c1ccncc1 | inconclusive: 39.8 µM [inhibitor, single point] | –
COc1ccc(/C=N/Nc2nc(-c3cccnc3)nc3ccccc23)cc1OC | inconclusive: 1.58 µM [inhibitor, full curve] | –
COc1cccc(N2CC(C(=O)Nc3nnc(SCC(=O)N4CCOCC4)s3)CC2=O)c1 (configuration not stated) | inconclusive: 22.4 µM [inhibitor, single point] | –
O=C(CC1C(=O)NCCN1Cc1ccoc1)NCCCn1ncc2ccccc21 (configuration not stated) | inconclusive: 17.7 µM [inhibitor, partial curve] | –
COc1ccc2nc(SC(C(=O)c3ccccc3)c3ccccc3)nc(C)c2c1 (configuration not stated) | – | inactive: -0.21%
Cc1nc(SCC(=O)c2cccc([N+](=O)[O-])c2)n[nH]1 | inconclusive: 31.6 µM [inhibitor, single point] | –
CN(C)CCCOc1nn(Cc2ccccc2)c2ccccc12 | inconclusive: 28.2 µM [inhibitor, single point] | –

SMILES | Potency | activity, negative = inhibition
COc1ccccc1N1C(=O)CC(N2CCc3ccccc32)C1=O (configuration not stated) | inconclusive: 17.7 µM [inhibitor, single point] | –
O=C(CSC(=S)N1CCCC1)c1cc(Br)cc(Br)c1O | active: 14.1 µM | –
Cc1ccccc1NC(=S)N/N=C/c1ccc(O)cc1O | – | inactive: 19.7%
N#C/C(=C\c1cccc(Oc2ccc(C(F)(F)F)cc2[N+](=O)[O-])c1)c1nc2ccccc2[nH]1 | – | inactive: -4.98%
Cc1ccc2nc(COc3ccc(N(C)S(=O)(=O)c4ccccc4)cc3)cc(=O)n2c1 | inconclusive: 17.7 µM [inhibitor, single point] | –
O=C(CN1CCC(N2CCCCC2)CC1)N1CCOCC1 | inconclusive: 17.7 µM [inhibitor, partial curve] | –
S=C(NCCc1ccccc1)Nc1cccc2cnccc12 | inconclusive: 14.1 µM [inhibitor, partial curve] | –
OC(COc1ccc(Cl)cc1)CN1C2=NCCCN2c2ccccc21 (configuration not stated) | – | inactive: -0.676%
O=C(c1cc(-c2ccco2)nc2ccccc12)N1CCN(c2ccc(F)cc2)CC1 | inconclusive: 35.4 µM [inhibitor, single point] | –
c1ccc2c(c1)CCN(c1nc(CN3CCOCC3)nc3sc4c(c13)CCCC4)C2 | – | inactive: 2.18%
COc1ccc(C(C)=O)cc1CN(C)C | – | inactive: -15.8%
Nc1cc([N+](=O)[O-])cc2oc(-c3ccccc3)cc12 | – | inactive: -0.658%
COCCn1cc(C(=O)NCc2cccs2)c2c3ccccc3n(C)c2c1=O | inconclusive: 15.8 µM [inhibitor, partial curve] | –
CCOC(=O)c1ccc2c(c1)C1C=CCC1C(C(=O)O)N2 (configuration not stated) | inconclusive: 22.3 µM [inhibitor, single point] | –
COC(=O)CCCC1=CC2=CC(=O)C(C)(OC(=O)c3cccs3)C(=O)C2=CN1C1CCCCC1 (configuration not stated) | inconclusive: 7.94 µM [inhibitor, full curve] and inconclusive: 500 nM [inhibitor, full curve] | –
Cc1cccc(Cc2cnc(N3C(=N)SC(C)C3=O)s2)c1 (configuration not stated) | active: 12.6 µM | –
O=C(O)CCCCCN1C(=O)/C(=C\c2ccc(-c3ccc(Cl)cc3)o2)SC1=S | active: 15.8 µM | –
COc1ccc(-c2nc3cnc(N(C)C)nc3n(C[C@H]3CCCO3)c2=O)cc1 | – | inactive: 0.723%
CCOC(=O)c1ccc(NC(=O)CCS(=O)(=O)c2ccc(Br)s2)cc1 | – | inactive: -0.41%
CCOC(=O)/C(C#N)=C1\SS/C(=C(/C#N)C(=O)OCC)S1 | inconclusive: 3.98 µM [inhibitor, full curve] | –
O=C1c2ccccc2CC1Sc1nnc(-c2ccccn2)o1 (configuration not stated) | – | inactive: -8.44%
